Assay results: the supplement of paper PMC6531468
This is one part of the list. These are enrichments in a pooled selection; single values are uncertain. Scores sum up all selected molecules that hold the word; the word was not tested alone.

Tests used:
Assay in all cases: 6-mer SELEX enrichment z-score vs GST control; IMP3 is the RNA-binding protein IGF2BP3; higher = more enriched by binding
IMP3 KH1-4 = conditions: construct: KH1-4 (164-579); SELEX round: R4
Procedure: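 SELEX-seq with GST-tagged IMP3 KH1-4 (Pro164-Lys579) and an N40 RNA pool, round 4. 6-mer z-score of sequence-tag enrichment normalised to the corresponding GST SELEX round; RNA k-mers written as DNA (T for U).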

IMP3 RRM1-2 = conditions: construct: RRM1-2 (1-163); SELEX round: R2
Chain of IMP3 RRM1-2 (chain, as listed by the source): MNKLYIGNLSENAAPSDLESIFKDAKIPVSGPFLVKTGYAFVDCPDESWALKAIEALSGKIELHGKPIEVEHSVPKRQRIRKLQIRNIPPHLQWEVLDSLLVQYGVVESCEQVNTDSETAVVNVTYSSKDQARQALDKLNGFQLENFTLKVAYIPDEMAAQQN
Procedure: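 SELEX-seq with GST-tagged IMP3 RRM1-2 (Met1-Asn163) and an N40 RNA pool, round 2. 6-mer enrichment z-score normalised to GST SELEX. RNA written as DNA (T = U).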

IMP3 full-length = IMP3 full-length (UniProt O00425); conditions: construct: FL IMP3 (1-579); SELEX round: R4
Chain of UniProt O00425 (O00425 whole entry): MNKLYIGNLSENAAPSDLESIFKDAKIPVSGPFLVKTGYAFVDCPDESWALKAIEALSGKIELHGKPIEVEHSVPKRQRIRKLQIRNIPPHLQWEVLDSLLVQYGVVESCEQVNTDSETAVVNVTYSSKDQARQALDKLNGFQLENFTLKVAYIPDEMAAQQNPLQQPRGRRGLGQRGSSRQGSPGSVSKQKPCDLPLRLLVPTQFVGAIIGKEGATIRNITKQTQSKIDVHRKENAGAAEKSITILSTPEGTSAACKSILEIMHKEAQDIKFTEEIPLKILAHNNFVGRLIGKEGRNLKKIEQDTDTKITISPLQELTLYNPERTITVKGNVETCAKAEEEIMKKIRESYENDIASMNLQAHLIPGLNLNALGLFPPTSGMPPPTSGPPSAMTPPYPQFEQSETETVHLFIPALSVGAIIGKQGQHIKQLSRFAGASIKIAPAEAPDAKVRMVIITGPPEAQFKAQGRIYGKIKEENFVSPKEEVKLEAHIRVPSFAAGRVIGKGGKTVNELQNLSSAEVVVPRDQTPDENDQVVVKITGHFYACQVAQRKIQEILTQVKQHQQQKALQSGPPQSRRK
Procedure: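 SELEX-seq with GST-tagged full-length IMP3 and an N40 RNA pool, round 4. Each 6-mer is scored as an enrichment z-score of sequence tags containing it, normalised to the matching GST SELEX round. RNA written as DNA (T = U).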

IMP3 KH1-2 = conditions: construct: KH1-2 (164-376); SELEX round: R4
Chain of IMP3 KH1-2 (chain, as listed by the source): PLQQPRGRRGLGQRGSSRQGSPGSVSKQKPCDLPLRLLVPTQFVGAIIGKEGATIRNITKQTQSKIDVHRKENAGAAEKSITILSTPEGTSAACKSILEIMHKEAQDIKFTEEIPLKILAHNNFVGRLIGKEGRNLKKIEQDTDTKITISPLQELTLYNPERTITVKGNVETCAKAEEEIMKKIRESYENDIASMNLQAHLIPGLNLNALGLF
Procedure: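 SELEX-seq with GST-tagged IMP3 KH1-2 (Pro164-Phe376) and an N40 RNA pool, round 4 (stringent 300/600 mM KCl washes). 6-mer z-score of sequence-tag enrichment normalised to the corresponding GST SELEX round; RNA k-mers written as DNA (T for U).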

IMP3 KH3-4 = conditions: construct: KH3-4 (377-579); SELEX round: R4
Chain of IMP3 KH3-4 (chain, as listed by the source): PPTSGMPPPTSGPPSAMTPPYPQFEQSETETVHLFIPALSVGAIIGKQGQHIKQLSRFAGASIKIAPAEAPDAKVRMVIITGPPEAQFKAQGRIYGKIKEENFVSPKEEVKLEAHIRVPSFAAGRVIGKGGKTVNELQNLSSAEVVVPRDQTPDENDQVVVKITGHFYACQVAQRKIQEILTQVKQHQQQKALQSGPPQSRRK
Procedure: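 SELEX-seq with GST-tagged IMP3 KH3-4 (Pro377-Lys579) and an N40 RNA pool, round 4. 6-mer z-score of sequence-tag enrichment normalised to the corresponding GST SELEX round; RNA k-mers written as DNA (T for U).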

Chain of IMP3 KH1-4 (chain, as listed by the source): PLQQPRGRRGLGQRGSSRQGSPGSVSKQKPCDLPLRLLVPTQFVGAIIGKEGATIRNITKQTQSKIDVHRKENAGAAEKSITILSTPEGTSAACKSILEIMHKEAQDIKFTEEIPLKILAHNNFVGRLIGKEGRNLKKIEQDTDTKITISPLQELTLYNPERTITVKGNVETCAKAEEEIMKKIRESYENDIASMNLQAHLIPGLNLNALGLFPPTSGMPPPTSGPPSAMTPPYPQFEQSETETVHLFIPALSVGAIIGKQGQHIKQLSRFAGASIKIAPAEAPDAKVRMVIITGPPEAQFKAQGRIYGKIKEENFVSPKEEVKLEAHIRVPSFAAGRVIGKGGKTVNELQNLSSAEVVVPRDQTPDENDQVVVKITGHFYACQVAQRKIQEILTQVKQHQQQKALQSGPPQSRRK

Sequence | 6-mer SELEX enrichment z-score (IMP3 KH1-4) | 6-mer SELEX enrichment z-score (IMP3 RRM1-2) | 6-mer SELEX enrichment z-score (IMP3 full-length) | 6-mer SELEX enrichment z-score (IMP3 KH1-2) | 6-mer SELEX enrichment z-score (IMP3 KH3-4)
AGCGTC | -0.862 | 0.446 | 0.356 | -0.669 | -0.562
TCGACG | -1.76 | -0.087 | -0.703 | -1.59 | -1.55
ACGCTG | -0.02 | -0.369 | 0.024 | -0.007 | -0.215
CCAATT | 0.059 | -0.172 | -0.418 | -0.027 | -0.235
CGATAA | 0.069 | -1.23 | -0.698 | 0.182 | 0.517
CCTAAG | -0.976 | -0.408 | -1.04 | -0.925 | -0.969
GTCGCG | 0.025 | 0.333 | 0.384 | 0.082 | 0.061
AGTGTC | -0.613 | 0.262 | -0.015 | -0.522 | -0.435
ATTGAG | -1.03 | -0.298 | -0.832 | -0.995 | -0.623
TACCGG | -0.14 | -0.425 | 0.068 | -0.201 | -0.244
GACATA | 1.08 | 0.195 | 0.797 | 0.883 | 1.24
CCGCCC | -0.828 | -0.762 | -0.662 | -0.526 | -1.62
TCGGTT | 0.078 | 0.546 | 0.232 | 0.071 | 0.301
AAGTGA | 0.189 | -1.03 | -0.702 | -0.143 | 0.422
GTGATG | 0.662 | -0.258 | -0.094 | 0.373 | 0.607
CAGCAC | 0.946 | 1.31 | 2.01 | 0.791 | -0.049
CTATGG | 0.189 | 0.235 | 0.052 | 0.144 | 0.26
CGGGCA | -0.269 | 0.244 | 1.44 | -0.099 | -0.08
TCCCGA | -1.92 | -0.809 | -1.32 | -1.68 | -1.84
GCCCTT | -0.24 | -0.063 | -0.237 | -0.245 | -0.4
TTACAT | 1.88 | 0.859 | 1.15 | 1.96 | 1.93
GAGTAG | -0.462 | 0.003 | -0.279 | -0.374 | -0.238
GAGCGA | -3.78 | -0.644 | -1.61 | -3.42 | -3.28
GATCGC | -0.116 | -0.202 | -0.09 | -0.249 | -0.243
GGACTG | 0.198 | -0.517 | -0.149 | 0.173 | 0.005
GATTGA | 0.291 | -0.712 | -0.565 | 0.058 | 0.579
TAAGTG | 0.238 | -0.169 | -0.26 | 0.088 | 0.421
TCGGCT | 0.807 | 0.662 | 1.21 | 0.603 | 0.817

Sequence | 6-mer SELEX enrichment z-score (IMP3 KH1-4) | 6-mer SELEX enrichment z-score (IMP3 RRM1-2) | 6-mer SELEX enrichment z-score (IMP3 full-length) | 6-mer SELEX enrichment z-score (IMP3 KH1-2) | 6-mer SELEX enrichment z-score (IMP3 KH3-4)
TGTACA | 0.597 | 0.062 | 0.257 | 0.327 | 0.314
GACCCC | -0.478 | -1.06 | -0.975 | -0.302 | -1.41
GTCTAT | 0.163 | 0.345 | 0.156 | 0.1 | 0.286
ATCCAG | -0.34 | 0.127 | -0.177 | -0.421 | -0.608
TGTGAA | 0.498 | -0.793 | -0.736 | 0.041 | 0.576
TACTAT | 1.2 | 0.184 | 0.11 | 1.12 | 1.38
TTAACC | -0.46 | -0.804 | -1.21 | -0.464 | -0.491
TGTGAT | 0.832 | -0.079 | -0.077 | 0.471 | 0.778
ATGGCG | 0.625 | 0.328 | 0.514 | 0.509 | 1.17
AATCCA | -0.466 | 0.018 | -0.778 | -0.363 | -0.776
TATGAC | 0.809 | -0.524 | -0.272 | 0.523 | 0.743
CGGCAG | 1.05 | 0.294 | 2.17 | 0.746 | 0.656
TAGGAA | 0.185 | -0.09 | -0.336 | -0.036 | 0.446
GCACTT | 0.5 | 0.522 | 0.579 | 0.311 | 0.237
TAGATC | 0.313 | 0.113 | 0.117 | 0.239 | 0.399
TGGAAG | 0.479 | -0.332 | -0.151 | 0.326 | 0.424
GTCTCA | -0.414 | 0.61 | 0.515 | -0.236 | -0.208
CGTCTT | -0.432 | 0.52 | 0.019 | -0.295 | -0.214
CTAGCT | -0.197 | 0.116 | -0.149 | -0.163 | -0.114
TGGGGC | 0.556 | 0.362 | 0.547 | 0.681 | 0.813
TTAGAT | 0.754 | -0.004 | 0.022 | 0.501 | 1.09
CATAAC | 1.6 | 1.43 | 1.67 | 2.15 | 1.41
TATGAG | -0.014 | -0.169 | -0.464 | -0.245 | 0.387
CCTTGT | -0.206 | 0.007 | -0.324 | -0.266 | -0.28
TACGAC | -0.022 | -0.681 | -0.409 | -0.261 | -0.673
AACTGA | -0.211 | -1.37 | -1.41 | -0.202 | 0.021
TAACGC | 0.099 | -0.314 | -0.483 | 0.126 | 0.033
